The source of these data is article PMC6949220.

Sequences of proteins named here, by UniProt entry; tags and fusion partners are left off. A change or cut given only in a name is not applied to a line headed by its entry. Residues count along the entry.
UniProt P40763: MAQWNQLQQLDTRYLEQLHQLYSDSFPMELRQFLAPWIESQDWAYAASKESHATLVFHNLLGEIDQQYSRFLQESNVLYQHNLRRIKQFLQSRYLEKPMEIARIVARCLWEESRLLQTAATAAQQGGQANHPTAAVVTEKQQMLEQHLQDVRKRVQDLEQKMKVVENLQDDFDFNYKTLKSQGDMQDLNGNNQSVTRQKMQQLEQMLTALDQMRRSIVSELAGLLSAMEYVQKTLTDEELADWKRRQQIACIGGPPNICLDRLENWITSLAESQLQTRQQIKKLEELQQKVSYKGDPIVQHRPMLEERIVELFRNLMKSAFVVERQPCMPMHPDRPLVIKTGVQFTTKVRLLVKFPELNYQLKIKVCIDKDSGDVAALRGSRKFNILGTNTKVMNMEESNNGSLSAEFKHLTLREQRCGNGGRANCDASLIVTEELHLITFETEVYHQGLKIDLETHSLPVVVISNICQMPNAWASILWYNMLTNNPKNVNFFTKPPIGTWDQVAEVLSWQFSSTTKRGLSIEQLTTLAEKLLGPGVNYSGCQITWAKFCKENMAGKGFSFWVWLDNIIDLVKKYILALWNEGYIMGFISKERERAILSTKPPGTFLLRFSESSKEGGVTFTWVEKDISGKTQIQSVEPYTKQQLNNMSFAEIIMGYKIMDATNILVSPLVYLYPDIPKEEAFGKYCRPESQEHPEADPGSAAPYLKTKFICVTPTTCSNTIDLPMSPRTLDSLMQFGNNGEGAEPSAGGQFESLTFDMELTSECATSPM
UniProt P28827, residues 21-1452: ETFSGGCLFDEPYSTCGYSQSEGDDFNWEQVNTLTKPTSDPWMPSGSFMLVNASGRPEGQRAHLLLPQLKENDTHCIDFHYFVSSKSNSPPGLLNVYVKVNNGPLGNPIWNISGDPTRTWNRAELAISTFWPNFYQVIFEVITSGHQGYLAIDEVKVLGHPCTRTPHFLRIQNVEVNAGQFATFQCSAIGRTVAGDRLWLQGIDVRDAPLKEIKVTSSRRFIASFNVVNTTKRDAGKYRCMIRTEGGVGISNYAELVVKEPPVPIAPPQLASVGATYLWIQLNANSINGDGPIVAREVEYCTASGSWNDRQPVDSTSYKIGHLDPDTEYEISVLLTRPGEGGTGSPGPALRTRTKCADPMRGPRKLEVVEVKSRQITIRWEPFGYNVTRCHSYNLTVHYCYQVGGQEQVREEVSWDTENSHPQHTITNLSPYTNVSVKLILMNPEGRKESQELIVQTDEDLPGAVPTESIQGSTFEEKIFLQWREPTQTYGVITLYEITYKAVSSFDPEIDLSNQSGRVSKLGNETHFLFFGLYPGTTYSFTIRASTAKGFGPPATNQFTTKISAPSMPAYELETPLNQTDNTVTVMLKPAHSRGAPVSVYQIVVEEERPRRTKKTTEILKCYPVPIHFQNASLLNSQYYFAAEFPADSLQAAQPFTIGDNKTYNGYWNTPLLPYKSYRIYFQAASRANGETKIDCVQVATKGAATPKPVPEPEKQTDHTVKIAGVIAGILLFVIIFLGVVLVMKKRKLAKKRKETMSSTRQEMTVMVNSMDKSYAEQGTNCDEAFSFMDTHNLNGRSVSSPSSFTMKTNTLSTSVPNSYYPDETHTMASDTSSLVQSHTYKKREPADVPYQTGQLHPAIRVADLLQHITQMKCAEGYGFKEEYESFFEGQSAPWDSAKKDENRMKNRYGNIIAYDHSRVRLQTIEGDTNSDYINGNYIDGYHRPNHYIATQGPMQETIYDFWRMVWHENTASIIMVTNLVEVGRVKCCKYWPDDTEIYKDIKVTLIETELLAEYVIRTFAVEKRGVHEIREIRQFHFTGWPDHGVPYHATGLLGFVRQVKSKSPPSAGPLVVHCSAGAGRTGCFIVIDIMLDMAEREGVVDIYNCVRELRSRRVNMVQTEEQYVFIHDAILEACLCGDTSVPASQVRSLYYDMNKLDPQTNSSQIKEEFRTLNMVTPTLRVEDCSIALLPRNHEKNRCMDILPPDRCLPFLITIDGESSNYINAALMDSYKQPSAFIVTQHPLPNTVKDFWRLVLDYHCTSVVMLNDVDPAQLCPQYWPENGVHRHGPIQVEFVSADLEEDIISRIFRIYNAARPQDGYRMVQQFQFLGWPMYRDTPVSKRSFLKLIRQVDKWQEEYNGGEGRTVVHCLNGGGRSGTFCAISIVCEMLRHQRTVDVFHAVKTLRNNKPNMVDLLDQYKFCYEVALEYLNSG

No constants are given. Whether binding was seen depends on the method and setting. Binding seen in cells or lysates may run through a third protein.

For the assay, the target named is HA-STAT3 Y705F (UniProt P40763). Briefly: co-IP; tagged proteins co-transfected (HEK293T where stated); lysates precipitated with anti-HA, anti-Flag or anti-Myc, immunoblot. Background: In western blotting, separated proteins are transferred to a membrane and probed.

With “Myc-DDK-tagged PTPRM (protein tyrosine phosphatase receptor mu) (from UniProt P28827 21-1452)”, the binding entry is recorded as “no binding”.
